Source: PubChem BioAssay (NCATS)
Inconclusive means that the source gave no clear call. Such entries were picked first, then a sample of the others. Where the call is inconclusive, the potency comes from a doubtful curve fit. The source made the active and inactive calls. Calls come from the whole dose curve; as a rule, active = well fitted inhibition curve with a large enough effect; inconclusive = small, poorly fitted or top-dose-only effect; inactive = flat fitted curve, though single readings scatter.
Potency is the fitted concentration of half-maximal effect; tags give direction and shape of the fitted curve.

Test: BET inhibitor-based combinations targeting novel dependencies in MECOM-rearranged (r) AML: AML-194 cell line (AID 2202237; note: nearly all actives have a fitted effect of over 40% in size;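 for viability (% of control): plate controls were vehicle wells for no effect and wells without cells for full effect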)
Settings: AML-194 (MECOM-r AML) viability, CellTiter-Glo, 48 h; series mostly up to 46 µM; viability (% of control): at the top concentration
Excerpt: Ecotropic viral insertion site 1 (EVI1) is located on chromosome 3q26.2 as part of the MECOM (MDS and EVI1 complex) locus. Under normal hematopoiesis, EVI1 is a regulator of hematopoietic stem cell maintenance and self-renewal and EVI1 levels decrease as the cells differentiate. In approximately 5-10% of de novo acute myeloid leukemia (AML) EVI1 is aberrantly expressed, including Chromosomal inv(3)(q21;q26.2) or t(3;3)(q21;q26.2) alterations (MECOM-r) that account for about 50% of AML with EVI1 overexpression 31. AMLs with high levels of EVI1 have a poor prognosis and an overall survival time averaging between 10-14 months. EVI1 overexpression confers resistance in leukemia cells, highlighting the need to develop new targeted therapies for EVI1 overexpressing AMLs.
Here, we performed an unbiased chemical drug screening by evaluating the single agent activity of a collection of 2,480 oncology-focused, approved and investigational drugs (NCATS Mechanism Interrogation Plates, MIPE v5.0) against a panel of seven AML cell lines. These included four MECOM-r cell-lines (AML-191, AML-194, UCSD-AML1 and HNT-34) and three non-MECOM-r AMLs (MV4-11, OCI-AML3 and SET-2). Exploiting the mechanistic redundancy built in the library, we identified target-level sensitivities in MECOM-r AML cells and relative activity as compared to other AML subtypes.
A collection of 2480 mechanistically annotated dugs (MIPE v5.0) was used to screen four 3q26.2 rearranged AML cell lines and three non-3q26.2 rearranged AML cell lines. This library purposely exploits redundancy by including multiple inhibitors of key onco-targets, while simultaneously encompassing mechanistic diversity, targeting more than 800 distinct mechanisms of action. Briefly, cells were seeded in 5 uL of growth media using a Multidrop Combi dispenser into 1536 well white polystyrene tissue culture treated plates (Corning) at a density of 500cells/well. For each cell-line, for each of the 2480 drugs in MIPE v5.0 library, an 11-point dose curve was generated via a 1536 pin-tool. Plates were incubated for 48 hr at standard incubator conditions, covered by a stainless steel gasketed lid to prevent evaporation. Cell viability was determined by luminescence based, Cell Titer Glo assay (Promega). In detail, 3 uL of Cell Titer Glo were added to each well and plates were incubated at room temperature for 15 min with a stainless-steel lid in place. Luminescence readings were taken using a Viewlux (PerkinElmer) with a 2 s exposure time per plate. Compound dose-response curves were normalized to DMSO and empty well controls on each plate. Quantitative drug activity data from dose-response curves was determined utilizing area Under the Curve (AUC) and Z-transformed AUC (Z-AUC, a mean-centering transformation applied to each individual cell-line screened).
For `N#Cc1ccc(N(Cc2ccc(Br)cc2)n2cnnc2)cc1`, the “viability (% of control)” value was inactive: 97.7%. For `Cn1c(=O)c(F)c(Nc2ccc(I)cc2F)c2c(=O)n(C[C@@H](O)CO)cnc21`, the Potency was inconclusive: 0.332 µM [inhibitor, full curve]. In the case of `COc1cc(Nc2ncc(F)c(Nc3ccc4c(n3)N(COP(=O)(O)O)C(=O)C(C)(C)O4)n2)cc(OC)c1OC`, the Potency is reported as inconclusive: 20.9 µM [inhibitor, partial curve, poor fit]. With `Cn1cnc(=N)c2[nH]cnc21` the “viability (% of control)” value was inactive: 114% [at 92.2 µM]. With `O=C(Nc1ccccc1)Nc1ccc(-c2ccc(C(=O)[C@@H]3CCC[C@H]3C(=O)O)cc2)cc1` the “viability (% of control)” value was inactive: 106%. For `Cc1ccc(-n2nc(C(C)(C)C)cc2NC(=O)NCc2cc(F)ccc2Oc2ccc3c(cnn3CCO)c2)cc1`, the Potency was active: 16.6 µM. In the case of `COc1cc2nccc(Oc3ccc(NC(=O)c4cn(C(C)C)c(=O)n(-c5ccc(F)cc5)c4=O)cc3F)c2cc1OC`, the “viability (% of control)” value is reported as inactive: 76.7%. For `Cc1[nH]nc2ccc(-c3cncc(OC[C@@H](N)Cc4ccccc4)c3)cc12`, the Potency was active: 1.18 µM. For `CC[C@H](C=C[C@@H](C)[C@H]1CC[C@H]2[C@@H]3CC=C4C[C@@H](O)CC[C@]4(C)[C@@H]3CC[C@]12C)C(C)C`, the “viability (% of control)” value was inactive: 99.4% [at 15.6 µM]. With `C[C@@H](Nc1cc(F)cc(F)c1)c1cc(C(=O)N(C)C)cc2c(=O)cc(N3CCOCC3)oc12` the Potency was inconclusive: 23.5 µM [inhibitor, partial curve]. For `COc1ccc(-c2ccc3c(N4CCOC[C@@H]4C)nc(N4CCOC[C@@H]4C)nc3n2)cc1CO`, the Potency was inconclusive: 0.0934 µM [inhibitor, full curve]. In the case of `O=c1cc(CN2CCOCC2)occ1OCCCCCSc1ccnc2cc(C(F)(F)F)ccc12`, the Potency is reported as inconclusive: 29.5 µM [inhibitor, single point]. For `Cn1ncc(NC(=O)c2nc(-c3c(F)cccc3F)sc2N)c1N1CC[C@@H](N)[C@H](F)CC1`, the Potency was inconclusive: 0.296 µM [inhibitor, full curve]. For `CN(C(Cc1ccc(OS(=O)(=O)c2cccc3cnccc23)cc1)C(=O)N1CCN(c2ccccc2)CC1)S(=O)(=O)c1cccc2cnccc12` (stereo not given), the Potency was inconclusive: 6.61 µM [inhibitor, full curve, poor fit]. For `CN(C)CCCN=c1c2ccccc2n(C)c2[nH]c(=O)n(C)c(=O)c12`, the Potency was inconclusive: 29.5 µM [inhibitor, single point]. For `CC[C@]12C=CCN3CC[C@@]4(c5cc([C@@]6(C(=O)OC)CC7C[C@@H](C(C)(F)F)CN(Cc8c6[nH]c6ccccc86)C7)c(OC)cc5N(C)[C@H]4[C@@](O)(C(=O)OC)[C@@H]1OC(C)=O)[C@@H]32` (stereo not given in full), the Potency was active: 0.332 µM. In the case of `Cn1c(=O)c(Oc2ccc(F)cc2F)cc2cnc(NC3CCOCC3)nc21`, the “viability (% of control)” value is reported as inactive: 104%. In the case of `CNC(=O)c1cc(Oc2ccc(NC(=O)Nc3ccc(Cl)c(C(F)(F)F)c3)c(F)c2)ccn1`, the Potency is reported as inconclusive: 14.8 µM [inhibitor, partial curve]. With `CNC[C@H](O)c1cccc(O)c1` the “viability (% of control)” value was inactive: 116%. In the case of `COC(=O)[C@H]1[C@@H](O)[C@@]2(O)c3c(OC)cc(O[C@@H]4O[C@@H]([C@@H](O)CO)CO[C@H]4OC)cc3O[C@@]2(c2ccc(OC)cc2)[C@@H]1c1ccccc1`, the Potency is reported as inconclusive: 18.6 µM [inhibitor, partial curve]. In the case of `CCOc1ccccc1N=Nc1c(C)[nH]n(-c2nc(-c3ccccc3)cs2)c1=O`, the “viability (% of control)” value is reported as inactive: 104%. In the case of `N=C1CCCN1Cc1[nH]c(=O)[nH]c(=O)c1Cl`, the “viability (% of control)” value is reported as inactive: 102%. With `CC(=O)Nc1ccc(C(=O)NC(C)(C)C)cc1` the “viability (% of control)” value was inactive: 96.6%. In the case of `CN(C)c1ccc(C2Nc3ccc4ccccc4c3C3=C2C(=O)CC(C)(C)C3)cc1Br` (stereo not given), the Potency is reported as inconclusive: 11.8 µM [inhibitor, full curve, poor fit]. For `CCOC(=O)O[C@]1(C(=O)OCCl)CC[C@H]2[C@@H]3CCC4=CC(=O)C=C[C@]4(C)[C@H]3[C@@H](O)C[C@@]21C`, the “viability (% of control)” value was inactive: 82.9%. In the case of `C[C@@H]1CCNC(=O)c2cc3ccc(C(=O)Nc4nc5ccccc5n4CCCN(C)C)cc3n21`, the Potency is reported as inconclusive: 26.3 µM [inhibitor, single point]. For `CC(=O)OCC(=O)[C@@]12OC(C)(C)O[C@@H]1C[C@H]1[C@@H]3C[C@H](F)C4=CC(=O)C=C[C@]4(C)[C@@]3(F)[C@@H](O)C[C@@]12C`, the Potency was inconclusive: 0.001 µM [inhibitor]. In the case of `Cc1ccc2c(=O)c3cccc(CC(=O)O)c3oc2c1C`, the “viability (% of control)” value is reported as inactive: 110%. In the case of `C[C@@H](NC(=O)c1ncnc(N)c1Cl)c1ncc(C(=O)Nc2cc(C(F)(F)F)c(Cl)cn2)s1`, the Potency is reported as inconclusive: 14.8 µM [inhibitor, partial curve]. In the case of `CCNCCS(=O)(=O)NC[C@@]1(c2ccccc2)SC(NC(=O)C(C)(C)C)=NN1C(=O)C(C)(C)C`, the Potency is reported as inconclusive: 0.0186 µM [inhibitor, full curve, poor fit]. In the case of `CCS(=O)(=O)Nc1ccc(Oc2ccc(F)cc2F)c(-c2cn(C)c(=O)c3[nH]ccc23)c1`, the Potency is reported as active: 0.0833 µM. For `O=C(O)c1c(Cl)c(Cl)c(Cl)c(Cl)c1-c1c2cc(I)c(=O)c(I)c-2oc2c(I)c(O)c(I)cc12`, the Potency was inconclusive: 16.6 µM [inhibitor, partial curve]. In the case of `CC1(CN2CCC(n3c(=O)[nH]c4ccccc43)CC2)OCc2ccccc2-n2cccc21` (stereo not given), the Potency is reported as inconclusive: 23.5 µM [inhibitor, partial curve, poor fit]. In the case of `Cc1ccc(NC(=O)Nc2nnc(Sc3ncnc4cc(OCCCN5CCOCC5)ccc34)s2)cc1`, the Potency is reported as inconclusive: 23.5 µM [inhibitor, partial curve]. With `Cc1nc(-c2ccc(OCC(C)C)c(C#N)c2)sc1C(=O)O` the “viability (% of control)” value was inactive: 103%. For `O=C1CCCC(=O)C1C(=O)c1ccc(C(F)(F)F)cc1[N+](=O)[O-]`, the “viability (% of control)” value was inactive: 99.2%. For `Cc1nc(NC(=O)N2CCCC2C(N)=O)sc1-c1ccnc(C(C)(C)C(F)(F)F)c1` (stereo not given), the Potency was inconclusive: 16.6 µM [inhibitor, partial curve]. With `CCC[C@H](NC(=O)[C@@H]1[C@H]2CCC[C@H]2CN1C(=O)[C@@H](NC(=O)[C@@H](NC(=O)c1cnccn1)C1CCCCC1)C(C)(C)C)C(=O)C(=O)NC1CC1` the “viability (% of control)” value was inactive: 91.7%. In the case of `Cc1ccc(S(=O)(=O)Nc2cc(Cl)ccc2C(=O)Nc2nc(-c3ccccc3)cs2)cc1`, the Potency is reported as active: 7.42 µM. In the case of `CC(C)(S)[C@@H](N)C(=O)O`, the viability (% of control) is reported as inactive: 114% [at 5.12 µM].
